The record followed here is PMC13083723 (Patterns, 2026).

Out of some 5,400 compounds screened, about 190 (3.5%) showed an effect of 50% or more. The list shows a part of the results. Non-standard residues stand in square brackets, D forms with d. Residues, ends and D or L forms follow the SMILES beside them. dPhe(4-Cl) = N[C@H](Cc1ccc(Cl)cc1)C(=O)O; d2Nal = N[C@H](Cc1ccc2ccccc2c1)C(=O)O; dCit = NC(=O)NCCC[C@@H](N)C(=O)O; d3Pal = N[C@H](Cc1cccnc1)C(=O)O

The test concerns Vero-E6. The experiment in a line: primary screen, phospholipidosis by LipidTOX staining; higher = more effect of the substance. Conditions: 10 µM. In short, it runs like this:
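Single-concentration screen at 10 μM, with DMSO 0.1 v/v % and amiodarone 10 μM as controls. Read-out is LipidTOX Red phospholipid staining, which tolerates aldehyde fixation, in Vero-E6 cells.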
Take `NC(=O)c1ncn([C@@H]2O[C@H](CO)[C@@H](O)[C@H]2O)c1O`: the result_ITMP is given as -4.37%. With `Cc1cn([C@@H]2C[C@@H](O)[C@H](CO)O2)c(=O)[nH]c1=O`, the result_ITMP was -4.57%. As for `CC(C)C[C@H](CN)CC(=O)O`, the figure is 7.75%; as for `COc1cc([C@@H]2c3cc4c(cc3[C@@H](O[C@@H]3O[C@@H]5CO[C@@H](C)O[C@H]5[C@H](O)[C@H]3O)[C@H]3COC(=O)[C@H]23)OCO4)cc(OC)c1OP(=O)(O)O`, -6.73%. As for `COc1cc2c(cc1NS(=O)(=O)c1ccc(Br)cc1C)n(C)c(=O)n2C`, the figure is -2.09%. As to `CC/C(=C(/CC)c1ccc(OP(=O)(O)O)cc1)c1ccc(OP(=O)(O)O)cc1`, the result_ITMP is given as -7.65%. For the compound `Cc1cc(NC(=O)C(c2ccccc2)N2CCCc3ccccc32)no1` (stereo not drawn), the result_ITMP is reported as -0.17%. In the case of `Oc1ccc([C@@H]2Oc3ccc(O)cc3[C@@H]3CCC[C@@H]32)cc1`, the result_ITMP is -1.91%. With `Cc1cc(-c2nc(C(=O)Nc3cn(C4CCOCC4)nc3C(N)=O)co2)ccn1`, the result_ITMP is -4.19%. Next, `COc1cccc2c1C(=O)c1c(O)c3c(c(O)c1C2=O)C[C@@](O)(C(=O)CO)C[C@@H]3OC1C[C@H](N2CCO[C@H](OC)C2)C(O)[C@H](C)O1` (stereo partly drawn): 0.2%; `CC(C)(O/N=C(\C(=O)N[C@@H]1C(=O)N2C(C(=O)[O-])=C(C[n+]3ccccc3)CS[C@H]12)c1csc(N)n1)C(=O)O`: -4.47%. As for `C[C@@H](O)[C@H](N)C(=O)O`, the figure is 2.14%.

On to `Clc1cccc(Cl)c1N=C1NCCN1`, for which the result_ITMP is recorded as -9.02%.

In the case of `CCC[C@H](NC(=O)/C(C#N)=C/c1cccc(Br)n1)c1ccccc1`, the result_ITMP is -10.4%. Next, `NC(=S)N/N=C/c1ccncc1`: -3.98%. On to `COC(=O)c1ccc(N2CCN(C)CC2)c(NC(=O)c2cccc(OC)c2)c1`, for which the result_ITMP amounted to 5.57%.

`OC[C@H]1O[C@@H](OCCc2ccc(O)cc2)[C@H](O)[C@@H](O)[C@@H]1O`: the result_ITMP is -4.23%. Next, `Cc1cc(/C(=C\Nc2ccc(Cl)cc2)C(=O)Nc2ccc(Cl)cc2)on1`: 1.46%. As for `CCCN(CCC)[C@@H]1CCc2c(OC)cccc2[C@@H]1C`, the figure is 0.14%. With `C[C@H](CCC(=O)NCCS(=O)(=O)O)[C@H]1CC[C@H]2[C@@H]3[C@H](O)C[C@@H]4C[C@H](O)CC[C@]4(C)[C@H]3C[C@H](O)[C@]12C`, the result_ITMP is recorded as -2.23%.

Turning to `CC(=O)N[C@H](Cc1ccc2ccccc2c1)C(=O)N[C@H](Cc1ccc(Cl)cc1)C(=O)N[C@H](Cc1cccnc1)C(=O)N[C@@H](CO)C(=O)N[C@@H](Cc1ccc(O)cc1)C(=O)N[C@H](CCCNC(N)=O)C(=O)N[C@@H](CC(C)C)C(=O)N[C@@H](CCCNC(=N)N)C(=O)N1CCC[C@H]1C(=O)N[C@H](C)C(N)=O` (Ac-[d2Nal][dPhe(4-Cl)][d3Pal]SY[dCit]LRP[dA]-NH2), the result_ITMP is reported as -3%.

Turning to `CNCCC=C1c2ccccc2CCc2ccccc21`, the result_ITMP came to 64.4%. As for `CC(C)(C)NCC(O)c1ccccc1Cl` (stereo not drawn), the figure is -1.18%; as for `CC(C)=CCC/C(C)=C/CNCCNC1C2CC3CC(C2)CC1C3` (stereo not drawn), 29.2%; as for `CCc1c2c(nc3ccc(OC(=O)N4CCC(N5CCCCC5)CC4)cc13)-c1cc3c(c(=O)n1C2)COC(=O)[C@]3(O)CC`, -2.58%. As for `CSCC[C@H](N)C(=O)O`, the figure is 4.52%; as for `N=C(N)NCCC(=O)O`, -4.98%; as for `C[n+]1ccc(C(=O)NCc2ccccc2)cc1`, -1%. For `C[C@@H]1C[C@H]2[C@@H]3CCC4=CC(=O)C=C[C@]4(C)[C@@]3(Cl)[C@@H](O)C[C@]2(C)[C@@]1(O)C(=O)CCl`, the result_ITMP turned out to be 0.3%. Next, `COC(=O)C1=C(C)NC(C)=C(C(=O)OC/C=C/c2ccccc2)C1c1cccc([N+](=O)[O-])c1` (stereo not drawn): 5.42%; `C[C@H](N)C(=O)O`: 5.32%; `C=CC(=O)Nc1cccc(Nc2nc(Nc3ccc(NC4CN(CCF)C4)cc3OC)ncc2C(F)(F)F)c1`: 19.1%. Next, `CCn1cc(C(=O)O)c(=O)c2cc(F)c(N3CCNC(C)C3)c(F)c21` (stereo not drawn): -1.13%; `CS(=O)(=O)Nc1ccc([N+](=O)[O-])cc1Oc1ccccc1`: -7.18%; `COc1cc(C)nc(-n2nc(C)cc2OC)n1`: -2.4%.

On to `O=C(O)C1=CCNCC1`, for which the result_ITMP is reported as -6.34%. Next, `CC(C)CN(C[C@@H](O)[C@H](Cc1ccccc1)NC(=O)O[C@H]1CCOC1)S(=O)(=O)c1ccc(N)cc1`: 2.75%; `CCn1c(=O)[nH]c2ccccc21`: -2.45%.

With `C#CC1(OCC(O)CN2CCN(c3cccc(C(F)(F)F)c3)CC2)CCCCC1` (stereo not drawn), the result_ITMP is on record as 2.6%.

In the case of `COc1cc2nccc(Oc3ccc(NC(=O)Nc4ccc(F)cc4F)c(F)c3)c2cc1OC`, the result_ITMP is -1.97%.

Turning to `CN1CCN(C2=Nc3ccccc3Sc3ccc(Cl)cc32)CC1`, the result_ITMP worked out at 26.7%. In the case of `CNC(=O)c1ccc2c(c1)CCO[C@H]2CCN1CCN(c2ccc(C(N)=O)cc2)CC1`, the result_ITMP is -6.24%. Next, `CC(=O)OC[C@H]1O[C@@H](n2ccc(=O)[nH]c2=O)[C@H](OC(C)=O)[C@@H]1OC(C)=O`: 1.47%; `Cc1cc(C(=O)CN2CCCC2)c(C)n1-c1ccc(F)cc1`: 2.92%.

Take `CCOC(=O)CCC(=O)O[C@H]1[C@H](O[C@@H]2[C@@H](C)[C@H](O[C@H]3C[C@@](C)(OC)[C@@H](O)[C@H](C)O3)[C@@H](C)C(=O)O[C@H](CC)[C@@](C)(O)[C@H](O)[C@@H](C)C(=O)[C@H](C)C[C@@]2(C)O)O[C@H](C)C[C@@H]1N(C)C`: the result_ITMP is listed as -1.35%. As for `COc1cc(NC(=O)c2ccc(-c3ccc(Cl)cc3)o2)cc(OC)c1`, the figure is 2.29%. Next, `Nc1ncnc2nc(-c3ccc(N4CCOCC4)nc3)cc(-c3cccc(Br)c3)c12`: 0.46%. Next, `N#Cc1ccc(Cn2cncc2CN2CCN(c3cccc(Cl)c3)C(=O)C2)cc1`: -0.37%; `c1ccc2c(Oc3nc(Nc4ccc(N5CCOCC5)cc4)c4ncn(C5CCCCC5)c4n3)cccc2c1`: -11.2%; `O=C(O)C(F)(F)C(F)(F)C(F)(F)C(F)(F)C(F)(F)C(F)(F)C(F)(F)F`: -0.24%. On to `FC(F)(F)c1cc(CO[C@H]2CCCN[C@H]2c2ccccc2)cc(C(F)(F)F)c1`, for which the result_ITMP came to 40.1%.
